Structures are written as SMILES. The whole screen tested about 50,000 compounds, of which about 800 (1.6%) showed an effect of 50% or more. Some of the results follow.

The assay has as its target Bcl-2-like protein 10 (Homo sapiens) (UniProt Q9HD36). The assay is described as follows: TR3 peptide-Bcl-B binding displacers, biochemical primary FP assay, phenotype converters (AID 1240).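 Note: 0% = Bcl-B with tracer peptide and DMSO and 100% = tracer peptide lacking Bcl-B.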 To be noted: GST-Bcl-B / FITC-TR3 peptide fluorescence polarization; stronger effect = higher value; compound at 3.75 mg/L. (In general: Polarisation of emitted light reports the rotation of a fluorescent probe.)
Sequence of UniProt Q9HD36 (Q9HD36 whole entry, looked up): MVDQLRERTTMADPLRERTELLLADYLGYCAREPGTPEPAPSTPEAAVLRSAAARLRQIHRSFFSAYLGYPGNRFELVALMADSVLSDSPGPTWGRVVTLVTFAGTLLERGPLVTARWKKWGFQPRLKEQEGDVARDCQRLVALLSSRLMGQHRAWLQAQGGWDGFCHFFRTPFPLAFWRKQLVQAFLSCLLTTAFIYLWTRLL
In the case of `COc1ccc(OC)c(C2C(C(=O)OCCc3ccccc3)=C(C)NC3=C2C(=O)CC(C)(C)C3)c1` (centres undefined), the displacement was -10.3%.

Take `O=c1c2ccccc2c(=O)c2c1c(O)cc1sc3ccccc3[nH]c12`: the displacement was found to be 11%.

Regarding `COc1ccccc1-c1c(C(F)(F)F)oc2cc(OC(=O)c3ccccc3C)ccc2c1=O`, the displacement came out at 16.9%.

In the case of `C=CCOc1ccc(/C=C2\C(=O)C(C(=O)OC)=C(C)N2c2ccc(F)cc2)cc1`, the displacement is 127%.

Take `CCCOC(=O)c1ccc(NC(=S)Nc2ccc(F)cc2)cc1`: the displacement amounted to 2.8%.

Consider `O=C(Nc1ccccc1C(=O)NCCc1ccccc1)c1ccco1`, for which the displacement is -2.8%.

Take `CCOC(=O)c1c(NC(=O)COc2ccc(Br)c(C)c2)sc2c1CCC2`: the displacement stood at 17.3%.

In the case of `CCC(Sc1nnc2c3ccccc3n(C)c2n1)C(=O)Nc1ncccc1Cl` (centres undefined), the displacement is 13.2%.

Regarding `CCn1cc(C(=O)NN)c(=O)c2cc(F)c(N3CCCCC3)cc21`, the displacement was found to be 17.4%.

Consider `Cc1ccc(OCC(=O)Nc2cc(C)ccc2C)cc1`, for which the displacement amounted to 8.8%.

Turning to `CCOc1ccccc1NC(=O)c1c(NC(=O)c2ccccc2)sc2c1CCC2`, the displacement is -5.4%.

As to `Ic1cccc(-c2nnc3ccc4ccccc4n23)c1`, the displacement is -6.9%.

Regarding `CCOC(=O)CCN1C(=O)/C(=C/c2ccc(Cl)cc2Cl)SC1=S`, the displacement is 38.1%.

On to `Cc1ccc(C(C)C)c(OCC(=O)Nc2ccc(-c3nc4ncccc4o3)cc2)c1`, for which the displacement worked out at 3.1%.

For the compound `N#Cc1c(/N=C/c2cc(Br)cc(I)c2O)sc2c1CCCC2`, the displacement was determined as 18.9%.

Take `COc1ccc(N2C(=O)/C(=C/c3ccc(-c4ccc(C(=O)O)cc4)o3)C(=O)NC2=S)cc1`: the displacement was -28.2%.

As for `CC(C)CCn1c(COc2ccccc2)nc2ccccc21`, the displacement is -15.5%.

Regarding `COc1cc(-c2cc(C(F)(F)F)n3ncc(C(=O)NCc4cccnc4)c3n2)cc(OC)c1OC`, the displacement amounted to 4.3%.

Take `CCOC(=O)c1c(NC(=S)NCc2ccccc2)sc2c1CCC2`: the displacement is 21.3%.

In the case of `COC(=O)C1=NN(C(=O)c2ccccc2)C(O)(c2ccc(Cl)cc2)C1` (centres undefined), the displacement stood at 2.3%.

`COC(=O)C1=C(C)NC(=O)/C1=C\c1ccc(OC)cc1`: the displacement came out at 5.9%.

`COc1ccc(N(CC(=O)N2CCCC2)S(C)(=O)=O)cc1Cl`: the displacement is -5.6%.

In the case of `CCOC(=O)c1c(NC(=O)c2cc(-c3ccccc3)nc3ccccc23)sc(C(N)=O)c1C`, the displacement was determined as 1.7%.

As to `Cc1cc(Br)ccc1N1C(=O)c2ccc(S(=O)(=O)c3ccc(C(=O)O)cc3)cc2C1=O`, the displacement is 7%.

In the case of `COC(=O)c1c(NC(=O)c2ccncc2)sc2c1C(C(=O)OC)CC2` (centres undefined), the displacement came out at 32%.

Take `O=C(N/N=C/c1cccs1)c1ccc([N+](=O)[O-])cc1Cl`: the displacement is -0.3%.

Regarding `COc1cc2c(cc1NC(=O)c1ccccc1OC)oc1ccccc12`, the displacement amounted to 24%.

Consider `Cc1ccc(OCCc2c(C)n[nH]c2C)c(Cl)c1`, for which the displacement was -17.1%.

For the compound `CC(C)(C)C1(O)CC(c2ccccc2)=NO1` (centres undefined), the displacement came out at 18.6%.

Turning to `O=C(Nc1ccc(Cl)c(Cl)c1)C(=O)NC1CCCC1`, the displacement came out at 2.1%.

`O=C(NC1C2CC3CC(C2)CC1C3)c1ccc(I)cc1` (centres undefined): the displacement turned out to be 9.4%.

On to `O=C(Nc1ccc(F)cc1F)c1cc(-c2ccccc2)nc2ccccc12`, for which the displacement was -10.4%.

For `Cc1cc(NS(=O)(=O)c2ccc(Nc3nc(-c4ccncc4)cs3)cc2)no1`, the displacement amounted to 10.4%.

In the case of `COc1ccc(C2=C/C(=C/c3ccc(OC)cc3OC)C(=O)O2)cc1`, the displacement was found to be 144%.

With `Cc1cccc(/C(N)=N/OC(=O)COc2ccc(Br)cc2)c1`, the displacement was 3.2%.

As for `CCOC(=O)c1ccc(-c2ccc(C(=O)Nc3cccc(-c4nc5ncccc5o4)c3C)o2)cc1`, the displacement stood at 26.2%.

In the case of `COc1cccc2sc(NC(=O)c3ccc(S(=O)(=O)N4CCCCC4)cc3)nc12`, the displacement stood at 3.1%.

Turning to `COc1ccc(C)cc1NC(=O)/C=C/c1ccc(Cl)cc1Cl`, the displacement was -7.3%.

As to `CCOc1ccc2nc(SCC(=O)Nc3cc(Cl)ccc3Cl)sc2c1`, the displacement turned out to be 3.4%.

Consider `Cc1ccccc1C(=O)NNC(=O)C(C)C`, for which the displacement is -10.9%.

For `Cc1cc(C)c(S(=O)(=O)NCC#N)c(C)c1`, the displacement was -9.7%.

For the compound `COc1ccc(Cl)cc1C(=O)Nc1ccc(S(=O)(=O)NC(C)=O)cc1`, the displacement was found to be 3.3%.

Turning to `O=C(NCCc1ccccc1)C1CC(=O)N(c2ccc(Br)cc2)C1` (centres undefined), the displacement is -2.5%.

For the compound `Cc1c[n+]2ccsc2n1CCCS(=O)(=O)[O-]`, the displacement is -7.9%.

Consider `O=C1CC(NCc2ccc(F)cc2)C(=O)N1c1ccc(Cl)cc1` (centres undefined), for which the displacement was -24.8%.

Regarding `O=C(Nc1ccc(Cl)cc1)O/N=C/c1ccc([N+](=O)[O-])cc1`, the displacement was -2.7%.

Take `COc1cc(/C=N/N2CCN(c3ccccc3)CC2)cc(OC)c1O`: the displacement worked out at 13.4%.

As for `COc1cc(NC(=O)c2cc(Br)ccc2OC)ccc1NC(=O)c1ccco1`, the displacement was -2.7%.

For the compound `O=C(NC(=S)Nc1ccc2oc(-c3cc(I)ccc3Cl)nc2c1)c1ccco1`, the displacement amounted to 12.6%.

In the case of `COc1cccc(/C=C2\SC(N3CCOCC3)=NC2=O)c1O`, the displacement is -11%.

For `C=CCOC(=O)C1=C(C)N(CC)C(=O)NC1c1ccc([N+](=O)[O-])cc1` (centres undefined), the displacement stood at 16.7%.

Regarding `COc1ccccc1C/C(N)=N/OC(=O)COc1ccc(Br)cc1`, the displacement was found to be 5.9%.

Turning to `COc1ccc(/C=C2/SC(=O)N(CNc3ccc(I)cc3)C2=O)cc1`, the displacement was -0.6%.

With `O=C(Nc1ccc(N2CCOCC2)cc1)C(c1ccccc1)c1ccccc1`, the displacement was -13%.

As to `COc1ccccc1N1CCN(C(=O)c2cc3n(n2)C(C(F)(F)F)CC(c2ccc(Cl)c(Cl)c2)N3)CC1` (centres undefined), the displacement is 11.5%.

Take `CCOc1ccccc1NC(=O)c1c(NC(=O)C(C)(C)C)sc2c1CCCC2`: the displacement is -8.4%.

`COc1ccc(S(=O)(=O)NCc2ccc3c(c2)OCO3)cc1[N+](=O)[O-]`: the displacement stood at 4.4%.

With `CC(=O)NC1=NC(=O)/C(=C\c2ccc(-c3ccccc3[N+](=O)[O-])o2)S1`, the displacement was -4%.

For `O=C1NC(=S)N(c2ccccc2)C(=O)/C1=C/c1ccc(Cl)cc1Cl`, the displacement is 6.2%.

In the case of `O=C(NCCN1C(=O)c2ccccc2C1(O)c1ccc(Cl)cc1)Nc1ccccc1` (centres undefined), the displacement was -5.8%.

For `Cc1ccccc1OCC(=O)Nc1ccc(C(C)C)cc1`, the displacement is -6.6%.

As to `COc1cc(C(=O)N2CCCCCC2)cc(OC)c1OC`, the displacement is -5.7%.

Regarding `COc1ccc(-c2nc3cc(NC(=O)COc4ccc5ccccc5c4)ccc3o2)cc1OC`, the displacement came to 5.9%.

For the compound `COc1ccc(-c2nc(-c3cc(OC)c(OC)c(OC)c3)no2)cc1OC`, the displacement was -5.7%.

As for `Cc1cc(C)c(S(=O)(=O)Nc2ccc(Br)c3cccnc23)c(C)c1`, the displacement amounted to 7.2%.

Turning to `CCOC(=O)COc1cccc2nsnc12`, the displacement came out at 0%.

On to `O=C(N/N=C/c1cccc(O)c1O)c1ccc(-c2ccccc2)cc1`, for which the displacement is -8.6%.

For the compound `COc1ccc2c(c1OC)C(=O)N(c1nc(-c3ccc(O)cc3)cs1)C2=O`, the displacement was 1.7%.

In the case of `CCc1ccc(NS(=O)(=O)c2ccc(NC(C)=O)cc2)cc1`, the displacement worked out at 3.9%.

The values above are taken from PubChem BioAssay AID1240 (Sanford-Burnham Center for Chemical Genomics, 2008).
